Measurements as given in the supplement of paper PMC11417369.
± gives the standard deviation of the averaged measurements. This is one part of the list.

What follows are sequences tested on PfAP2-I AP2 domain 3 (GST-tagged) (assay: gcPBM binding intensity (ln(normalized median fluorescence intensity)); higher = stronger DNA binding).
Procedure, shortened: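 Binding intensity is defined as the maximum Masliner-normalised natural-log median intensity across replicate spots for either probe orientation. It was measured on an Agilent 4 × 180k array of primer-extended double-stranded 36-bp intergenic genomic probes and negative controls, to which GST-tagged P. falciparum DNA-binding domains made in E. coli were applied for 1 h in 1× PBS with 1% milk, 0.2 mg/ml BSA, 0.5% salmon testes DNA and 0.03% Triton X-100. Detection was by Alexa488 anti-GST antibody and scanning at 488 nm.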

Row | Sequence | gcPBM binding intensity (ln)
1 | TAATATTCAATTATACGTACACATATATATATATAT [XGTACX_site4245] | 9.33 ± 0.54
2 | TTACGCATACTAATTACACACAAATAGATGAATATA [CACACA_site1338] | 8.06 ± 0.3
3 | ATAAAAAAATAAATTAGTACATATATATATATATAT [XGTACX_site6971] | 9.41 ± 0.26
4 | TTAAATTAAAACAAATGTACAAAGTGCATATTTTTT [XGTACX_site8143] | 9.45 ± 0.15
5 | ATTTTTTTTTCTTTCGCACACGTGAAAGAATTTCTA [CACACA_site2052] | 8.46 ± 0.53
6 | ATAATTTAATACTAGTGTACAGAAAAAAAAAAAAAA [XGTACX_site6756] | 8.19 ± 0.58
7 | ATATTATATTATATAACACACATTTTTCATAACACT [CACACA_site407] | 7.99 ± 0.65
8 | TGTTTAAATTTTTTGTTTTTTTTTTTATAAAGCAAA [TGCATGCA_negctrl_site313] | 7.48 ± 0.21
9 | ACATATATATATAAATATATATATATATAAATATAT [CACACA_negctrl_site895] | 7.92 ± 0.36
10 | GTTGAACATAGATGCACACACATAAAATAAAAAAAA [CACACA_site5353] | 8.76 ± 0.057
11 | TTGTTGTTATTTAAAACACACATCAATCATCTTAAC [CACACA_site1142] | 7.55 ± 0.5
12 | TGAAGGTCAGTTCACAGTACCCAGTAACTCTACGGA [XGTACX_site2554] | 7.24 ± 0.54
13 | TATATTTTTTTAAAAAGTACTTTGTATATATATATA [XGTACX_site1300] | 9.32 ± 0.63
14 | AAAAAACACAGACACACACACATATACATACATACA [CACACA_site2666] | 8.55 ± 0.78
15 | ATATTTCGTCTAAAAAGTACACAACAATAAAAAGTA [XGTACX_site6668] | 8.04 ± 0.5
16 | TTAGGTTTATACACTACACACATTATTCATAAAAAA [CACACA_site871] | 7.96 ± 0.38
17 | TTTTTTAAATAATATTGTACAAAAAATGTATAAATA [XGTACX_site3010] | 7.92 ± 0.22
18 | AAGTGTATACAGAAGAGTACAAACAATTTTTTTCTT [XGTACX_site7387] | 7.71 ± 0.64
19 | TATATATATTTAAGGTGTACATAAATAACAAAATAT [XGTACX_site2641] | 8.21 ± 0.61
20 | TTTTCATTTATGTATATATTTATTTTGATTTAATGT [GTGCAC_negctrl_site607] | 7.47 ± 0.56
21 | AAAATTATAAATCTTGCACACAAAAAAAATAATAAA [CACACA_site8771] | 8.43 ± 0.071
22 | TAAATATATTCAATCACACACATTCGTTTTTTTTTT [CACACA_site234] | 7.53 ± 0.69

Row | Sequence | gcPBM binding intensity (ln)
23 | AATTATTTTATGTGAGGTACACCACACATGAAGGGG [XGTACX_site8450] | 8.3 ± 0.31
24 | TATTGTTATGTCGTTATTAACTTTCTTTAATTAATT [CACACA_negctrl_site174] | 7.81 ± 0.54
25 | AAATATTCATAGTATACACACATTTATATATAATCA [CACACA_site771] | 8.01 ± 0.33
26 | TGAAAGTTCAATAATTGTACATGTGGAAATTCATAC [XGTACX_site1378] | 8.24 ± 0.55
27 | ACCCATTTAACAAAATGTACATTATTATAATTACTT [XGTACX_site7105] | 8.02 ± 0.58
28 | AAATTTTAAATAGTATGTACGTATGAAATATATATG [XGTACX_site7511] | 8.17 ± 0.47
29 | ATTTAAATACAAAATTGTACTTTTCTATATTTAACA [XGTACX_site6146] | 7.79 ± 0.41
30 | TTTGGAAAAAAATTATTTAAACGATATGAATTGATG [XGTACX_negctrl_site506] | 7.65 ± 0.65
31 | AAAATTTTACAGAAGGTGCGTATATTTTCCTGCTTA [GTGCAC_site9643] | 9.69 ± 0.085
32 | TACAATATTTTGAGACGTACATATATACATTTACAT [XGTACX_site5880] | 7.71 ± 0.46
33 | CTTACCAAAAGACACACACACACAAGATATATAAAT [CACACA_site6964] | 7.82 ± 0.52
34 | AAATTAAAATAAAAATGTACATATAAAGACACAACT [XGTACX_site3132] | 8.57 ± 0.37
35 | TATATATATATACCAACACACATACAGATATATATA [CACACA_site5060] | 9.16 ± 0.42
36 | TTTATATACAAAAATGCACACGAAAAGTAATATATA [CACACA_site9387] | 8.53 ± 0.63
37 | TGTAAGTCGTTATAAGCACACACATAAATAAAAATA [CACACA_site8448] | 8.31 ± 0.24
38 | TGAACTTACTTGGACATACACACATATATATATATA [CACACA_site2977] | 9.6 ± 0.47
39 | AAGCCCATTATTAAATGTACAAAATTTTATAAACTA [XGTACX_site7800] | 7.68 ± 0.64
40 | TATAGGTATTTATATACACACATATTCTTTTTACAC [CACACA_site6686] | 7.88 ± 0.37
41 | GTATATATGTATATATGTACATATATATAATATATT [XGTACX_site56] | 8.34 ± 0.91
42 | TAAAACATATATACAAGTACACAAAGGATATATATA [XGTACX_site3710] | 7.93 ± 0.71
43 | CAGTGCCAAATTAGCACACACATATATACATGAATT [CACACA_site2814] | 9.48 ± 0.22
44 | ATGTAGATAAAACGTGTGCACATGTTTTTTGTTATT | 9.52 ± 0.33
